This is one part of the list. These are noisy estimates, calculated here from bound and input reads.
Biological target: T1, Pho4 (S. cerevisiae) (UniProt P07270)
T1 sequence: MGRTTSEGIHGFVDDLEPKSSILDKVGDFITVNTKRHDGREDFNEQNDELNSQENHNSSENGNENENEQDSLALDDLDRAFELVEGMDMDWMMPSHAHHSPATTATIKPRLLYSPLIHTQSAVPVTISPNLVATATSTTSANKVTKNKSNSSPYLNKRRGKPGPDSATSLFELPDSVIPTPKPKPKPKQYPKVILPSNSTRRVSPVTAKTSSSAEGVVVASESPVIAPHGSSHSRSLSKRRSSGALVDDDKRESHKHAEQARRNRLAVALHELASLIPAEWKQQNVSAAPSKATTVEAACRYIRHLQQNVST
Assay: relative binding free energy (BET-seq); higher = weaker binding
Details: reference: library average

| Sequence | relative binding free energy |
| --- | --- |
| GGGTTCACGTGGCGGT | 0.32 kcal/mol |
| TCATGCACGTGCAGGT | -0.07 kcal/mol |
| GTCGACACGTGTCGGG | 0.13 kcal/mol |
| ATTGGCACGTGGCAGG | -0.14 kcal/mol |
| GAGGTCACGTGTAGTA | 0.26 kcal/mol |
| AAAGTCACGTGTGGGA | 0.13 kcal/mol |
| GGACTCACGTGTTGTT | 0.21 kcal/mol |
| GATTCCACGTGTGATG | 0.5 kcal/mol |
| AAGAGCACGTGGATGT | -0.04 kcal/mol |
| GAGTTCACGTGACAGG | 0.41 kcal/mol |
| GGTGTCACGTGCTGTC | 0.11 kcal/mol |
| TAAAACACGTGGGTTA | -0.1 kcal/mol |
| CAAAGCACGTGGTTGT | -0.04 kcal/mol |
| TAGTTCACGTGTACTT | 0.16 kcal/mol |
| TGGTGCACGTGCTAAG | -0.22 kcal/mol |
| CTTGGCACGTGGGTTC | -0.32 kcal/mol |
| GTGTGCACGTGTCCAG | -0.01 kcal/mol |
| ATTAGCACGTGGTACG | -0.05 kcal/mol |
| AATGCCACGTGTTAGT | -0.07 kcal/mol |
| ACGTGCACGTGAATTG | 0.08 kcal/mol |
| AACGTCACGTGTGGAG | 0.15 kcal/mol |
| CGGGTCACGTGTGTTC | 0.18 kcal/mol |
| AGATTCACGTGATGTG | 0.22 kcal/mol |

| Sequence | relative binding free energy |
| --- | --- |
| TGGTCCACGTGGGTGC | -0.2 kcal/mol |
| TGGGTCACGTGTTGAG | 0.14 kcal/mol |
| AAAAGCACGTGGCGGG | -0.22 kcal/mol |
| GTAATCACGTGTTGAT | 0.21 kcal/mol |
| TTTACCACGTGATAGT | 0.1 kcal/mol |
| ATTGTCACGTGCGGGC | 0.09 kcal/mol |
| TTATACACGTGGGGTA | -0.18 kcal/mol |
| TGGCTCACGTGGTGTG | 0.12 kcal/mol |
| GGGTGCACGTGGCTGG | -0.05 kcal/mol |
| TTTGACACGTGTAATA | 0.09 kcal/mol |
| GATGTCACGTGAGGTG | 0.31 kcal/mol |
| TGGGTCACGTGGATTT | 0.17 kcal/mol |
| GGGTACACGTGACGGG | 0.33 kcal/mol |
| ATTATCACGTGCATTG | 0.11 kcal/mol |
| AGGTTCACGTGCGTTT | 0.3 kcal/mol |
| TCACTCACGTGTGTGG | 0.21 kcal/mol |
| TATATCACGTGCGCGG | 0.1 kcal/mol |
| CAGGTCACGTGAGTAA | 0.36 kcal/mol |
| GGTTGCACGTGCGGAC | 0.06 kcal/mol |
| GCGGGCACGTGTGCTT | -0.03 kcal/mol |
| GGCAGCACGTGGTGTA | -0.09 kcal/mol |
| ATGGGCACGTGCGATC | 0.05 kcal/mol |
| GTGTTCACGTGATTCA | 0.33 kcal/mol |

| Sequence | relative binding free energy |
| --- | --- |
| CTTAACACGTGTGGGA | -0.1 kcal/mol |
| GTACTCACGTGAGGTT | 0.46 kcal/mol |
| GATTTCACGTGGCGTC | 0.35 kcal/mol |
| ATGTGCACGTGGTCTA | -0.03 kcal/mol |
| GAGAGCACGTGACGGT | 0.18 kcal/mol |
| GGTGGCACGTGCCCGT | -0.13 kcal/mol |
| TTTTACACGTGAGTCG | 0.29 kcal/mol |
| CGTTGCACGTGGACGT | -0.03 kcal/mol |
| TTAAACACGTGTAATG | -0.03 kcal/mol |
| AATGTCACGTGATGGT | 0.21 kcal/mol |
| AGGTTCACGTGTAGAC | 0.31 kcal/mol |
| GGGATCACGTGGTATA | 0.07 kcal/mol |
| TGGGACACGTGGGGGA | -0.08 kcal/mol |
| TAGAGCACGTGTTGTC | -0.13 kcal/mol |
| TGTGACACGTGCTGAG | -0.11 kcal/mol |
| AGTGACACGTGGGGCG | -0.08 kcal/mol |
| CTAGGCACGTGTGGTT | -0.11 kcal/mol |
| GGGTTCACGTGCTTGT | 0.2 kcal/mol |
| GGGCTCACGTGGAGGG | 0.17 kcal/mol |
| TGATGCACGTGTTGTC | -0.06 kcal/mol |
| ACGGGCACGTGGTGTC | -0.23 kcal/mol |
| CTTGCCACGTGGTTGT | -0.22 kcal/mol |
| TAGTTCACGTGTTACT | 0.28 kcal/mol |

| Sequence | relative binding free energy |
| --- | --- |
| CTTTGCACGTGGATTT | 0.14 kcal/mol |
| TGGAACACGTGTACGT | 0.06 kcal/mol |
| TGCAACACGTGGGTTG | -0.02 kcal/mol |
| TAGGGCACGTGGCTGG | -0.09 kcal/mol |
| GTTCACACGTGGGTAT | 0.04 kcal/mol |
| TAGGTCACGTGGGATG | 0.03 kcal/mol |
| GCTCGCACGTGGGAGG | -0.15 kcal/mol |
| TTTTGCACGTGAATGG | 0.31 kcal/mol |
| GGTTGCACGTGGTTTA | 0.08 kcal/mol |
| AGATACACGTGGTGCT | 0.06 kcal/mol |
| TTGGACACGTGTAGAT | 0.27 kcal/mol |
| TGATTCACGTGTGATC | 0.27 kcal/mol |
| GGGTGCACGTGTGTGG | 0.03 kcal/mol |
| TTCTGCACGTGAGTAG | 0.21 kcal/mol |
| AGGCACACGTGGTTGG | -0.01 kcal/mol |
| TGTGGCACGTGCGGTT | -0.09 kcal/mol |
| TGAGGCACGTGCTTGC | 0 kcal/mol |
| TGACTCACGTGTGTAG | 0.18 kcal/mol |
| GGTGCCACGTGGTCGT | -0.24 kcal/mol |
| GTAGCCACGTGTATGG | -0.07 kcal/mol |
| GTCGGCACGTGTATTG | 0.05 kcal/mol |
| GATTTCACGTGATGGC | 0.44 kcal/mol |
| AGTGGCACGTGGAAAG | -0.01 kcal/mol |

| Sequence | relative binding free energy |
| --- | --- |
| AATGCCACGTGGTTTT | -0.15 kcal/mol |
| GCGGTCACGTGTAGAG | 0.13 kcal/mol |
| GATAGCACGTGAGTGT | 0.26 kcal/mol |
| AGTGGCACGTGGTGGC | -0.1 kcal/mol |
| AGGAGCACGTGGTGTC | -0.19 kcal/mol |
| TGATTCACGTGTTGTT | 0.26 kcal/mol |
| GGGTTCACGTGGGAAG | 0.31 kcal/mol |
| GTGCGCACGTGGGGGG | -0.19 kcal/mol |
| ATGTACACGTGTGGTG | 0.09 kcal/mol |
| AATGACACGTGAAGAT | 0.35 kcal/mol |
| ATTTGCACGTGATTGA | 0.07 kcal/mol |
| TAAGGCACGTGTGGTG | -0.07 kcal/mol |
| CATGTCACGTGGAGTT | 0.14 kcal/mol |
| GAGCTCACGTGAAGGT | 0.37 kcal/mol |
| AGTAGCACGTGAGAGT | 0.17 kcal/mol |
| GTGCACACGTGGATGG | 0.04 kcal/mol |
| TAGGTCACGTGTTAGA | 0.11 kcal/mol |
| ACGGACACGTGTAGGT | 0 kcal/mol |
| AGAATCACGTGTTAGG | 0.17 kcal/mol |
| AGTTTCACGTGTGGAG | 0.26 kcal/mol |
| TTAGGCACGTGGGGAG | -0.21 kcal/mol |
| ATTATCACGTGTTCGA | 0.17 kcal/mol |
| GGTATCACGTGCTGTA | 0.13 kcal/mol |
